No constants are given. Whether binding was seen depends on the method and setting. In cells and extracts the contact can be indirect. Some entries that bind do so weakly or less than the wild type. For some of these results: Where a sequence is shown, tags or fusion partners need not be part of it.
Assays:
[1] = molecular target: HA–Rab35-Q67L (mouse) (UniProt Q6PHN9); assay: co-IP; HA–Rab35-Q67L from COS-7 lysate held on anti-HA agarose beads, washed, then incubated 1 hr at 4°C with lysate expressing a FLAG–Rab in the absence or presence of lysate expressing T7–MICAL-L1; blots with anti-FLAG and anti-T7
[2] = molecular target: T7–MICAL-L1 (mouse) (UniProt Q8BGT6); assay: as above
[3] = molecular target: T7–MICAL-L1 (mouse) (UniProt Q8BGT6); assay: co-IP; HA–MICAL-L1 with T7–MICAL-L1 (Fig. 2F); which copy was precipitated is not told

Sequences of proteins named here, by UniProt entry; tags and fusion partners are left off. A change or cut given only in a name is not applied to a line headed by its entry.
UniProt Q6PHN9: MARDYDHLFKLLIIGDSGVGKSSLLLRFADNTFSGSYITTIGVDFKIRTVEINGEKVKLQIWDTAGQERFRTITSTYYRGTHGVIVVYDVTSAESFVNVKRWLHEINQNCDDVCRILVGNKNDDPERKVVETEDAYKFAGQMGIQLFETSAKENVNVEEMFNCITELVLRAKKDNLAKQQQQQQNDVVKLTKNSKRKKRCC
UniProt Q8BGT6: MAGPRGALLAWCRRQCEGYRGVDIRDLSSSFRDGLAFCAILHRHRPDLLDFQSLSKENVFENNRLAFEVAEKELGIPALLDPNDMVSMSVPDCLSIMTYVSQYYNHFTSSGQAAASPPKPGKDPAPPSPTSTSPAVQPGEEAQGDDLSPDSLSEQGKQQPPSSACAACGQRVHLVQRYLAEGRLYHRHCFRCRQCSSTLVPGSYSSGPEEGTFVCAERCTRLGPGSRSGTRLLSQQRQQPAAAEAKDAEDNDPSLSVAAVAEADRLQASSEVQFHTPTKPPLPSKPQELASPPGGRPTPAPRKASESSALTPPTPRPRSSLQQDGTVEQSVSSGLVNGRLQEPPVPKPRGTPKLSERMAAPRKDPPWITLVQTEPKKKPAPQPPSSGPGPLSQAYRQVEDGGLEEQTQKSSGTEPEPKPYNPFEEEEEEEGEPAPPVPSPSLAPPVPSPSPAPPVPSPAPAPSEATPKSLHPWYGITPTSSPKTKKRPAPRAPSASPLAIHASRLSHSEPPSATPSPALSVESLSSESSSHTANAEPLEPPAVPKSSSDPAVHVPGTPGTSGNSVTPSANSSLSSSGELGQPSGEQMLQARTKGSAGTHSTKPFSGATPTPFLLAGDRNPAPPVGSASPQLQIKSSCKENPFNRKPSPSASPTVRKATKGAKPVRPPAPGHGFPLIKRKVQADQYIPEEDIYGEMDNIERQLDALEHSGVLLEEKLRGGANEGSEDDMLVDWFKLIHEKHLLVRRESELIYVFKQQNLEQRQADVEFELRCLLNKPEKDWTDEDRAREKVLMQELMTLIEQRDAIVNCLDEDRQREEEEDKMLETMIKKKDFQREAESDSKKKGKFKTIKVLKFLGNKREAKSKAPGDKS
UniProt P55258: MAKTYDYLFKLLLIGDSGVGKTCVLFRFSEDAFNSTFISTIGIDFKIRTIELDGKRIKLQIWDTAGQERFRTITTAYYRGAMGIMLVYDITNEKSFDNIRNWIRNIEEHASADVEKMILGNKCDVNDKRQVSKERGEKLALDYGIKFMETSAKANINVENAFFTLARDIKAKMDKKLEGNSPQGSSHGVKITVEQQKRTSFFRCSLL
UniProt P62821: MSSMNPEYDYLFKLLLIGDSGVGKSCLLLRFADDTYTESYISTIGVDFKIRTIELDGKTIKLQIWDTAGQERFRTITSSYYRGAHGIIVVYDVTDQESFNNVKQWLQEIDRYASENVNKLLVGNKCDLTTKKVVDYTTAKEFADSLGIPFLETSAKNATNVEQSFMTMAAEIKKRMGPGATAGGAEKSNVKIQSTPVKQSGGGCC
UniProt P61028: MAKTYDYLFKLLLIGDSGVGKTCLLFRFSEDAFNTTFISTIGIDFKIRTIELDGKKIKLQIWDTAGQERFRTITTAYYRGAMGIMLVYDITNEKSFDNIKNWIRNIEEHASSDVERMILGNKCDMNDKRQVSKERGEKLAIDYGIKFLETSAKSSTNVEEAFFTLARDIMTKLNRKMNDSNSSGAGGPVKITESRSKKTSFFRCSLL

Row | binding [1] | binding [2] | binding [3] | Molecule
1 | – | binds | – | FLAG–Rab8A-Q67L (from UniProt P55258 1-207)
2 | binds | – | binds | T7–MICAL-L1 (from UniProt Q8BGT6 1-870)
3 | – | binds | – | FLAG–Rab36-Q116L (protein, UniProt Q8CAM5 1-267) MRSSWTPLGPPVSQDRIITSFPKWYTPDACLQLKEHFHSRVSTACQHRNTGTAGLRLSKVVVVGDLYVGKTSLIHRLCKNVFDHDYKATIGVDFEIERFEIAGIPYSLQIWDTAGLEKFKCIASAYYRGAQVIITAFDLTDVQTLEHTRQWLEDVLRENEAGSCFIFLVGTKKDLLSGAACEQAEAEAVHLANEMQAEYWSVSAKTGENVKAFFSRVAALAFEQSVLQDLEKRPSTQSQVGDGDGDLIRIEVPKTQENKRPPGLGCC

The remaining lines, values behind:

Row | Molecule | binding [1] | binding [2] | binding [3]
4 | FLAG–Rab1A-Q70L (from UniProt P62821 1-205) | no binding | – | –
5 | FLAG–Rab8B-Q67L (from UniProt P61028 1-207) | – | binds | –
6 | FLAG–Rab13-Q67L (protein, UniProt Q9DD03 1-202) MAKAYDHLFKLLLIGDSGVGKTCLIIRFAEDNFNSTYISTIGIDFKIRTVDIEGKRIKLQVWDTAGLERFKTITTAYYRGAMGIILVYDITDEKSFENIQNWMKSIKENASAGVERLLLGNKCDMEAKRQVQREQAEKLAREHRIRFFETSAKSSVNVDEAFSSLARDILLKTGGRRSGTNSKPSSTGLKTSDKKKNKCLLG | – | binds | –

Reference: paper PMC4163657
